In all, about 350,000 compounds went through this assay and about 31,000 (8.9%) were called active. This list was built around the results that the source calls inconclusive (neither active nor inactive); the mix of calls is not that of the screen. The call rests on the fitted dose curve; in most records, active means well fitted inhibition curve with a large enough effect; inconclusive means small, poorly fitted or top-dose-only effect; inactive means no such curve, though single readings can be large or run the other way. Potencies of inconclusive entries are doubtful fits and often do not repeat.
These compounds were tested against Histone-lysine N-methyltransferase EHMT2 (Homo sapiens) (UniProt Q96KQ7) (assay: qHTS Assay for Inhibitors of Histone Lysine Methyltransferase G9a). Details: G9a H3K9 monomethylation, AlphaScreen, 2 h; activity, negative = inhibition: at 59 µM (top of the series) unless noted.
Chain of UniProt Q96KQ7 (Q96KQ7 whole entry, looked up): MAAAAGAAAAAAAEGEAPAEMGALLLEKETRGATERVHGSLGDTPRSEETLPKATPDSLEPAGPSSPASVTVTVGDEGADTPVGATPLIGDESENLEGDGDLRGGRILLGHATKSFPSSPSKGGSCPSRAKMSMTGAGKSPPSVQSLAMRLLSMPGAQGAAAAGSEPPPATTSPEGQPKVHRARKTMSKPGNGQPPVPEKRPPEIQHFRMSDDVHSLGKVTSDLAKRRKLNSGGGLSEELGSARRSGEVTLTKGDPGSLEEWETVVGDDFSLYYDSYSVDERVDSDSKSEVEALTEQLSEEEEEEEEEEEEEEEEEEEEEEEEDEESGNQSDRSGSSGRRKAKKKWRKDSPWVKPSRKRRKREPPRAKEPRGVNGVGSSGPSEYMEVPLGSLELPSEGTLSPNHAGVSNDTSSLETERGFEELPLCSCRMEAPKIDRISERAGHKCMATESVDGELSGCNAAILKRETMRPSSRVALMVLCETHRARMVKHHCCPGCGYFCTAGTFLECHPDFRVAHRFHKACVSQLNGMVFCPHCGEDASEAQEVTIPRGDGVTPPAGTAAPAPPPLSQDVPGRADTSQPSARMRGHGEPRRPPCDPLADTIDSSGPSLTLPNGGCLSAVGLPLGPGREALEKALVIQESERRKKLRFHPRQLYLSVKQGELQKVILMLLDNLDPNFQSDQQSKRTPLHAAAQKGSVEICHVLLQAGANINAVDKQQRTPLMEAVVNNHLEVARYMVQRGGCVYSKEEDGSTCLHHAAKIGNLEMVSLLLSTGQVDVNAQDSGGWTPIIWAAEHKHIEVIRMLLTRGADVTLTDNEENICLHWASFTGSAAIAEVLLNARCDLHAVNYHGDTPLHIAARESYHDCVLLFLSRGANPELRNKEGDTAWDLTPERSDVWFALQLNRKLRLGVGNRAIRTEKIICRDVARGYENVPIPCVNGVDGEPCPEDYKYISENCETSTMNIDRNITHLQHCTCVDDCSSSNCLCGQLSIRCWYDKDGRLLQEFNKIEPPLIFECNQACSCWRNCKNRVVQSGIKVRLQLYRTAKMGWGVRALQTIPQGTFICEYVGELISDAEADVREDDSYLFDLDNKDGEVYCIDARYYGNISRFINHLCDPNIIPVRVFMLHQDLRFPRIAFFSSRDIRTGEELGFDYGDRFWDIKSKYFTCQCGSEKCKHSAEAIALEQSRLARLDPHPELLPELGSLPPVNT
Procedure, shortened: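 AlphaScreen read-out: biotin-H3K9 peptide (500 nM) methylation by 20 nM enzyme with 20 uM SAM, 2 h at room temperature after 15 min compound preincubation; anti-monomethyl H3K9 antibody plus donor/acceptor beads, 10 min dark.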
For `COc1ccc(/C=C/C(=O)OCn2c(SC)nnc(C)c2=O)cc1OC`, the Potency was inconclusive: 39.8 µM [inhibitor, single point]. `CNS(=O)(=O)c1ccc2nc(NC(=O)c3ccc(N4C(=O)CCC4=O)cc3)sc2c1` was tested, and the Potency was active: 3.55 µM. In the case of `CC(C)(C)OC(=O)CNC(=O)c1nc[nH]c1C(=O)N1CCN(C(=O)OC(C)(C)C)CC1`, the Potency is reported as active: 79.4 µM. With `CC(=O)Nc1ccc(N=Nc2c(C)[nH]n(C(N)=S)c2=O)cc1` the Potency was active: 44.7 µM. In the case of `N#CCCN(C(=S)Nc1ccc(S(=O)(=O)N2CCOCC2)cc1)c1ccccc1F`, the Potency is reported as active: 44.7 µM. For `C=CCOc1ccc(Cl)cc1C(=O)O`, the Potency was “inactive”. With `Cc1ccc(/C=N\NC(=O)c2ccc(Cn3cc(Br)c([N+](=O)[O-])n3)o2)o1` the Potency was inconclusive: 50.1 µM [inhibitor, partial curve, poor fit]. `O=C1Nc2c(c(=O)[nH]c(=O)n2Cc2ccccc2)C1(NS(=O)(=O)c1ccccc1)C(F)(F)F` (stereo not given) was tested, and the Potency was active: 44.7 µM. For `CC1CCN(S(=O)(=O)c2ccc3c(c2)N(CC(=O)N2CCN(c4ccc(Cl)cc4)CC2)C(=O)CO3)CC1`, the Potency was “inactive”. In the case of `Cc1[nH]c2ccccc2c1CC(=O)O`, the activity, negative = inhibition is reported as inconclusive: -74.5% [inhibitor]. With `COc1ccc(C(=O)NCCS(=O)(=O)N2CCN(Cc3ccccc3)CC2)cc1` the Potency was inconclusive: 70.8 µM [inhibitor, partial curve, poor fit]. `COc1cccc(C2=NN(C(C)=O)C(c3cn(-c4ccccc4)nc3-c3cccs3)C2)c1` (stereo not given) was tested, and the Potency was “inactive”. With `CCOc1ccc(CCNC(=O)CCc2cn(Cc3ccc(C)cc3)c3ccccc23)cc1` the Potency was “inactive”. In the case of `O=C(CCNS(=O)(=O)c1cccc2nsnc12)Nc1ccc2c(c1)OCCO2`, the Potency is reported as inconclusive: 3.16 µM [inhibitor, single point]. In the case of `Cc1cc(NC(=O)CN2CCN(S(=O)(=O)c3ccc(Cl)cc3)CC2)no1`, the Potency is reported as “inactive”. In the case of `O=C(CC1S/C(=N/N=C/C=C/c2ccccc2)NC1=O)Nc1ccc(C(=O)O)cc1` (stereo not given), the Potency is reported as inconclusive: 89.1 µM [inhibitor, single point]. With `CC(C)CCNC(=O)N1CCN(S(=O)(=O)c2ccc3c(ccn3C)c2)CC1` the Potency was “inactive”. In the case of `CCOC(=O)CSC(CC)C(=O)Nc1nnc(CC)s1` (stereo not given), the Potency is reported as inconclusive: 79.4 µM [inhibitor, partial curve, poor fit]. In the case of `O=C(c1ccc(CSc2nc3ccncc3n2Cc2ccccc2F)cc1)N1CCCCCC1`, the Potency is reported as inconclusive: 12.6 µM [inhibitor, partial curve, poor fit]. With `Cc1cc(=O)[nH]c(=S)n1-c1ccccc1` the activity, negative = inhibition was inconclusive: -71.9% [inhibitor]. `CCOc1cc(N2CCOCC2)c(OCC)cc1NC(=O)CN1C(=O)NC(Cc2ccccc2)C1=O` (stereo not given) was tested, and the activity, negative = inhibition was inconclusive: -54.6% [inhibitor]. For `CCCCn1c(SCC(=O)c2ccc(OC)c(OC)c2)nc2cc(S(N)(=O)=O)ccc21`, the Potency was active: 50.1 µM. `Cc1ccc(-n2c(C)cc(C(=O)COc3cccnc3[N+](=O)[O-])c2C)cc1` was tested, and the Potency was inconclusive: 28.2 µM [inhibitor, single point]. In the case of `C/C(=N\NC(=O)c1nnn(-c2nonc2N)c1CN1CCCCCC1)c1ccc(Br)cc1`, the Potency is reported as active: 50.1 µM. In the case of `Cc1oc2cc3oc(=O)c(CCC(=O)N[C@H](C(=O)O)C(C)C)c(C)c3cc2c1C`, the Potency is reported as inconclusive: 7.08 µM [inhibitor, partial curve]. `Cc1ccc(OCC(=O)Nc2cc(S(=O)(=O)N3CCCCC3)ccc2C)c([N+](=O)[O-])n1` was tested, and the Potency was inconclusive: 0.794 µM [inhibitor, full curve, poor fit]. In the case of `Cc1cccc2c1CC(C)(C)N/C2=C\C(N)=O`, the Potency is reported as inconclusive: 8.91 µM [inhibitor, full curve, poor fit]. For `COc1cccc(C(=O)NCC(=O)OCC(=O)Nc2ncc(Cl)cc2Cl)c1`, the Potency was inconclusive: 50.1 µM [inhibitor, partial curve]. With `COc1ccc(N2CCN(S(=O)(=O)c3c(C)[nH]c(C)c3C(=O)N3CCCCC3)CC2)cc1` the Potency was inconclusive: 17.8 µM [inhibitor, single point]. `Cc1ccc(NC(=O)C2CCCN(S(=O)(=O)c3cnc[nH]3)C2)c(Br)c1` (stereo not given) was tested, and the Potency was “inactive”. In the case of `COc1ccccc1CN1CCN(C(=O)c2ccncc2)CC1`, the Potency is reported as inconclusive: 1.41 µM [inhibitor, single point]. `O=C(NC1CCCC1)C(c1ccc(F)cc1)N(Cc1ccc(Cl)cc1)C(=O)CCl` (stereo not given) was tested, and the Potency was inconclusive: 89.1 µM [inhibitor, single point]. `CCOC(=O)Nc1ccc2c(CNC(C)c3ccccc3OC)cc(=O)oc2c1` (stereo not given) was tested, and the Potency was “inactive”. For `Cc1ccc(-c2onc(C)c2C)cc1S(=O)(=O)N1CC(C)Oc2ccccc21` (stereo not given), the Potency was “inactive”. `Cc1csc(N(C)C(=O)CSc2nnc(COc3cccc4ccccc34)o2)n1` was tested, and the Potency was active: 10 µM. In the case of `COCCn1c(=NC(=O)c2cc3ccccc3oc2=O)sc2cc(S(N)(=O)=O)ccc21`, the Potency is reported as “inactive”. `O=C(NC1CCCC1)C(c1cccnc1)N(C(=O)c1csnn1)c1ccccc1Cl` (stereo not given) was tested, and the Potency was “inactive”. In the case of `CCN(CC)CCNC(=O)c1cn(-c2ccccc2)nc1-c1cccs1`, the Potency is reported as “inactive”. In the case of `CC(=O)Nc1ccc(-n2cc3c(c2-c2ccc(C)cc2)c(=O)n(C)c(=O)n3C)cc1`, the Potency is reported as inconclusive: 17.8 µM [inhibitor, partial curve, poor fit]. In the case of `CC(C)(OC(=O)c1ccc(F)cc1)c1cc2ccccc2c(=O)o1`, the activity, negative = inhibition is reported as inactive: 11.2% [at 0.501 µM]. With `Cc1c(C)c(C)c(S(=O)(=O)n2[nH]c(=O)c(CCO)c2C)c(C)c1C` the Potency was inconclusive: 89.1 µM [inhibitor, single point]. With `CC(C)(C)C1CCc2nc(NC(=O)COc3ccc(F)cc3)sc2C1` (stereo not given) the Potency was “inactive”. With `c1ccc(Nc2cc(-c3ccoc3)ncn2)cc1` the activity, negative = inhibition was inactive: -14.9% [at 0.501 µM]. `CCC(=O)Nc1ccccc1-c1nc2ccccc2n(C(CC)C(=O)Nc2cccc(C(C)=O)c2)c1=O` (stereo not given) was tested, and the Potency was inconclusive: 35.5 µM [inhibitor, partial curve, poor fit]. For `O=C(O)c1c2c(nc3ccccc13)/C(=C/c1ccccc1[N+](=O)[O-])CCC2`, the Potency was inconclusive: 89.1 µM [inhibitor, single point]. In the case of `CCCCN(CC)CCCn1cnc2c([nH]c3ccc(Cl)cc32)c1=O`, the Potency is reported as “inactive”. For `Cc1ccccc1-n1c(Cn2c(=O)sc3ccccc32)nnc1SCC(=O)NCC1CCCO1` (stereo not given), the Potency was inconclusive: 89.1 µM [inhibitor, single point]. With `Oc1ccc(N=Cc2c(O)ccc3ccccc23)cc1` the Potency was active: 1 µM. `CCCC(=O)Oc1c(Sc2ccc(Cl)cc2)c(C)nn1-c1ccccc1` was tested, and the Potency was active: 3.98 µM. For `COc1ccc(NC(=O)N2CCN(S(C)(=O)=O)CC2)c(OC)c1`, the Potency was inconclusive: 39.8 µM [inhibitor, single point]. `CC(C)CN(C(=O)COC(=O)COc1ccc2ccccc2c1)c1c(N)n(Cc2ccccc2)c(=O)[nH]c1=O` was tested, and the Potency was inconclusive: 89.1 µM [inhibitor, single point]. With `Cn1cc(C(=O)O)c(=O)c2cc(S(=O)(=O)N3CCCCC3)ccc21` the Potency was inconclusive: 39.8 µM [inhibitor, partial curve, poor fit]. `CN1/C(=C\C=C2/SC(=S)N(CC(=O)O)C2=O)C(C)(C)c2ccccc21` was tested, and the Potency was active: 17.8 µM. In the case of `O=C1Nc2ccc(F)cc2C12Nc1ccccc1-c1nnc(SCc3ccccc3Cl)nc1O2` (stereo not given), the activity, negative = inhibition is reported as inconclusive: -70.6% [inhibitor]. In the case of `CN(C)C(=O)c1ccc2c(c1)N(CC(=O)NCc1ccc(F)cc1)C(=O)C1CCCCN21` (stereo not given), the Potency is reported as “inactive”. With `NC(=O)c1sc2nnc(-c3ccccc3)c(-c3ccccc3)c2c1N` the Potency was “inactive”. `COC(=O)C(Cc1ccc(O)cc1)NC(=O)C(C)NC(=O)c1ccc(C(C)(C)C)cc1` (stereo not given) was tested, and the Potency was “inactive”. With `CC1=C(C(=O)O)N2C(=O)C(NC(=O)c3nn(C)c(C)c3Cl)C2SC1` (stereo not given) the Potency was active: 8.91 µM. For `CC(=O)c1ccc(NC(=O)Cn2c(-n3nc(C)cc3C)nc(C)cc2=O)cc1`, the Potency was inconclusive: 2.82 µM [inhibitor, partial curve, poor fit]. With `Cc1cccn2c(=O)c(/C=C(\C#N)C(N)=O)c(N3CCN(c4cccc(Cl)c4)CC3)nc12` the Potency was active: 22.4 µM. In the case of `COc1cc(CCC(=O)Nc2ccc(S(=O)(=O)NC3=NCCCCC3)cc2)cc(OC)c1OC`, the Potency is reported as inconclusive: 56.2 µM [inhibitor, partial curve, poor fit]. In the case of `NC1=NC(=O)/C(=C/c2cc(Br)c(O)c(Br)c2)S1`, the Potency is reported as inconclusive: 100 µM [inhibitor, single point]. With `Cc1ccccc1N=C1NC(=O)/C(=C/c2cccn2C)S1` the Potency was active: 44.7 µM. With `Cc1ccccc1-n1c(Cc2cccs2)n[nH]c1=S` the Potency was inconclusive: 4.47 µM [inhibitor, partial curve, poor fit]. For `CC(C)(C)c1ccc(OCC(=O)N(Cc2ccco2)Cc2ccccc2F)cc1`, the Potency was “inactive”. For `COc1ccc(OC)c(C2C(C(N)=O)=C(C)Nc3nc(-c4cccc(Cl)c4)nn32)c1` (stereo not given), the Potency was inconclusive: 0.199 µM [inhibitor, full curve, poor fit]. In the case of `Cc1ccc(CN2CC(C(=O)Nc3ccc(F)c([N+](=O)[O-])c3)CC2=O)cc1` (stereo not given), the Potency is reported as inconclusive: 79.4 µM [inhibitor, single point]. For `COc1ccccc1NC(=S)NC(NC(=O)c1ccco1)C(Cl)(Cl)Cl` (stereo not given), the Potency was inconclusive: 22.4 µM [inhibitor, single point]. With `COc1cc(C(=O)NCCOc2ccccc2)c(Br)c(OC)c1OC` the Potency was inconclusive: 25.1 µM [inhibitor, single point]. `CC(=O)c1cnc2cc(-c3ccc(C)cc3)nn2c1C` was tested, and the Potency was inconclusive: 39.8 µM [inhibitor, single point].
Further: nearly all actives have a fitted effect of over 75% in size.
On the % scale 0 is the no-effect control and ±100 the full control effect; potency means the concentration at half of the fitted maximal effect; tags describe the fitted curve by direction and shape.
